# Data taken from patent publication US11696914B1 (priority 2019, dated 2023).
# Conditions: pyronaridine 1 μM, 60 min incubation
compound,measurement,value
COc1ccc2nc3cc(Cl)ccc3c(N)c2n1 [M11],Relative Peak Area/Abundance GPLM,0.7%
